Results on 172 sequences are retold here after PMC6212790.

The list shows a part of the results. At the low end of the ranking the order means little.

This test has as its target T1, GST-Rok-C97-191 (UniProt O34857).
T1 sequence: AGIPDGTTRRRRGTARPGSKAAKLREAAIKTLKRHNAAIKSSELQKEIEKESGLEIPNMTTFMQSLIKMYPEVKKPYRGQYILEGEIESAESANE
Briefly: protein binding microarray.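 Further: rank score from −0.5 (least bound) to 0.5 (best bound).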 As to conditions: Rok is a gene silencer of Bacillus subtilis; high values mean tight binding; most listed sequences are background and not binding sites; double strand, one strand shown.
In the case of GCATAGCA, the binding signal was found to be 0.08 E-score.

TATGATAA: the binding signal turned out to be 0.26 E-score.

Consider AGAAGCCC, for which the binding signal is -0.248 E-score.

Take AGGCGTTC: the binding signal is -0.107 E-score.

CTCCCGAG registered a binding signal of -0.091 E-score.

For the sequence GTGGAGTA, the binding signal is 0.12 E-score.

As for AATAATAG, the binding signal turned out to be 0.405 E-score.

TGCCTTAA showed a binding signal of 0.0526 E-score.

Consider TACCAACA, for which the binding signal came to 0.0546 E-score.

As to AGCGGATA, the binding signal stood at 0.215 E-score.

Take ACGCGGTG: the binding signal was -0.255 E-score.

GTTAGCGA yielded a binding signal of 0.0595 E-score.

In the case of TCCCAGGA, the binding signal was 0.112 E-score.

Turning to ACACTTCT, the binding signal came out at 0.189 E-score.

Take CCCAATTA: the binding signal is 0.137 E-score.

For the sequence AAAAGTTT, the binding signal came to 0.0597 E-score.

On to CCTGAGGC, for which the binding signal is -0.0873 E-score.

CATAGTCA registered a binding signal of -0.0508 E-score.

The sequence GATCCCGC had a binding signal of -0.105 E-score.

Take AATAATAA: the binding signal stood at 0.371 E-score.

Turning to CTGGTCCA, the binding signal was -0.212 E-score.

ATACGGAA: the binding signal was 0.219 E-score.

AGCGGGTA: the binding signal is -0.195 E-score.

ATAGCGAA came in with a binding signal of 0.197 E-score.

Turning to AGTGTTTG, the binding signal turned out to be 0.1 E-score.

With CTCGAGAC, the binding signal is -0.079 E-score.

Sequence GAAAAACA yielded a binding signal of 0.0708 E-score.

ACTTCGTA gave a binding signal of 0.139 E-score.

With AGAGACCT, the binding signal was -0.171 E-score.

In turn, GGCGTGAC gave a binding signal of -0.263 E-score.

AGGGGTAC showed a binding signal of -0.11 E-score.

For the sequence ACGCTGGA, the binding signal was -0.183 E-score.

GTGGCACA showed a binding signal of -0.254 E-score.

GCGATACC had a binding signal of 0.122 E-score.

For CAAGCCCG, the binding signal is -0.232 E-score.

ATTGTATC yielded a binding signal of 0.256 E-score.

Consider AAAGGATT, for which the binding signal was -0.186 E-score.

In turn, AGTTTATC gave a binding signal of 0.201 E-score.

In turn, CTTGTATC had a binding signal of 0.0186 E-score.

For the sequence AACTGCGT, the binding signal is -0.079 E-score.

ATAGAACC came in with a binding signal of 0.154 E-score.

For the sequence CTGTGTCA, the binding signal was -0.239 E-score.

On to AAGCCCAA, for which the binding signal was -0.21 E-score.

The sequence ACTGTCCA returned a binding signal of -0.0143 E-score.

Sequence GATATTAA showed a binding signal of 0.379 E-score.

As to GGACGCCC, the binding signal is -0.434 E-score.

The sequence AGACATCA showed a binding signal of -0.0505 E-score.

Sequence CATGCGTA gave a binding signal of -0.12 E-score.

For the sequence GGATATAA, the binding signal stood at 0.3 E-score.

In turn, AATTTACA gave a binding signal of 0.331 E-score.

AGAACACT registered a binding signal of 0.0462 E-score.

For GTGACCAA, the binding signal was -0.126 E-score.

ACTAAATC returned a binding signal of 0.35 E-score.

As for AGGTCGAG, the binding signal came out at 0.000538 E-score.

With CGTCTGTA, the binding signal was determined as 0.14 E-score.

With GAAAGCGA, the binding signal is 0.0717 E-score.

For ATGATTCA, the binding signal was -0.0396 E-score.

The sequence AACAAAAC registered a binding signal of 0.035 E-score.

Consider AAAGATAA, for which the binding signal was determined as 0.33 E-score.

As to CACTGCCC, the binding signal was -0.245 E-score.

TATGCGAA gave a binding signal of 0.0471 E-score.

Take CCGACTCA: the binding signal was -0.123 E-score.

The sequence GATTCCAC displayed a binding signal of -0.131 E-score.

CGTAGCAA returned a binding signal of 0.0103 E-score.

GCCAGGGC registered a binding signal of -0.407 E-score.

In turn, GGGGGTCA displayed a binding signal of -0.339 E-score.

For the sequence GTCAGTCA, the binding signal was 0.0612 E-score.

With AGTTTAAC, the binding signal was 0.088 E-score.

CAGTTATG showed a binding signal of 0.0833 E-score.

GCACCCAC yielded a binding signal of -0.189 E-score.

CCATCCGC yielded a binding signal of -0.213 E-score.

The sequence CCGTGTCA registered a binding signal of -0.224 E-score.

In turn, CGGGGTTC came in with a binding signal of -0.0694 E-score.

On to CCAGCGCA, for which the binding signal stood at 0.0638 E-score.

In turn, AGGAGCCA returned a binding signal of -0.358 E-score.

TCAACAGA gave a binding signal of -0.0186 E-score.

The sequence AATCTGGC displayed a binding signal of -0.179 E-score.

In turn, ATTGCCTA came in with a binding signal of 0.0237 E-score.

Sequence CATGCCGC returned a binding signal of -0.228 E-score.

In turn, ACAGCTAC came in with a binding signal of 0.118 E-score.

Sequence CAACCTTA displayed a binding signal of 0.0605 E-score.

In turn, CAAAGGAA gave a binding signal of -0.279 E-score.

Turning to AGATTTTG, the binding signal came out at 0.108 E-score.

In turn, CATATCCA displayed a binding signal of 0.188 E-score.

Consider GGATCGCA, for which the binding signal is -0.162 E-score.

Regarding ATGTAGAA, the binding signal is 0.38 E-score.

In the case of CGGAGCTC, the binding signal was -0.247 E-score.

In turn, TCGACCAA returned a binding signal of -0.0422 E-score.

Sequence GATCGCCC registered a binding signal of 0.0523 E-score.

Consider AGGACTGA, for which the binding signal was -0.0415 E-score.

Turning to GCCGTGGA, the binding signal is -0.168 E-score.

On to AACTGGTG, for which the binding signal is -0.0392 E-score.

AACTCGTC had a binding signal of 0.0338 E-score.

As for ATCTTCCC, the binding signal was -0.0283 E-score.

In the case of CGATGCAA, the binding signal worked out at 0.000508 E-score.

Turning to GTATGCTA, the binding signal came to 0.191 E-score.

In turn, TCATACAA displayed a binding signal of 0.126 E-score.

Turning to CCGTTGAC, the binding signal is -0.272 E-score.

As for GACTACTC, the binding signal came to 0.127 E-score.

In turn, AAAATACC showed a binding signal of 0.357 E-score.

Sequence GCGCTAAC had a binding signal of 0.141 E-score.

Consider ACTCGTAT, for which the binding signal was determined as 0.0526 E-score.

With AGGCTTAC, the binding signal was -0.296 E-score.

In turn, ACTCGTAA gave a binding signal of 0.176 E-score.

ATTTGACG came in with a binding signal of -0.02 E-score.

GAACTGCC had a binding signal of 0.00234 E-score.

Take GCATATAA: the binding signal came to 0.0606 E-score.

Take GGGTCTGA: the binding signal was -0.0346 E-score.

In turn, CCGAATCA returned a binding signal of -0.0264 E-score.

For CGGGCAAC, the binding signal was -0.269 E-score.

For CCCCTCGC, the binding signal was -0.146 E-score.

In turn, CATTCCAG registered a binding signal of -0.144 E-score.

Sequence CACGCAGA yielded a binding signal of 0.0214 E-score.

AACAAGCC came in with a binding signal of -0.0361 E-score.

The sequence CGGGCCAG came in with a binding signal of -0.274 E-score.

For the sequence ACGCGATA, the binding signal was 0.141 E-score.

Turning to CTGGGAAA, the binding signal is -0.136 E-score.

CGCCCCTA yielded a binding signal of -0.241 E-score.

In turn, AGCAACAT returned a binding signal of 0.0841 E-score.

GCGGTGTA gave a binding signal of 0.00165 E-score.

The sequence ATGATTGG came in with a binding signal of -0.187 E-score.

For AATGGTTA, the binding signal is 0.162 E-score.

Sequence CCAATTAA gave a binding signal of 0.00432 E-score.

CGCGCCGC gave a binding signal of -0.298 E-score.

AGGGAGTG: the binding signal is -0.264 E-score.

Consider ATTGCTAC, for which the binding signal was 0.184 E-score.

For CCTGTGGC, the binding signal is -0.25 E-score.

The sequence AACACCAT came in with a binding signal of -0.11 E-score.

In turn, CGTGTCCA had a binding signal of -0.0989 E-score.

With CTCACCTC, the binding signal was -0.104 E-score.

The sequence CCTGTGAA yielded a binding signal of -0.122 E-score.

Sequence GATCGCGA registered a binding signal of 0.0474 E-score.

In turn, CCAACAGA showed a binding signal of -0.14 E-score.

Take GCTATTAA: the binding signal is 0.106 E-score.

On to AGTTTTAG, for which the binding signal was 0.28 E-score.

As for CATAAAAG, the binding signal came to 0.105 E-score.

Regarding ATTTGCGC, the binding signal amounted to 0.202 E-score.

GGTGGATA showed a binding signal of 0.142 E-score.

AGAAACGG returned a binding signal of 0.0626 E-score.

As for CAATGGCC, the binding signal was -0.0152 E-score.

GGAAAAGA: the binding signal is -0.0888 E-score.

CTAAAGAG: the binding signal came to 0.00481 E-score.

GCTCTTCA showed a binding signal of -0.136 E-score.

Sequence ACTCATTC gave a binding signal of 0.131 E-score.

GAATCATC returned a binding signal of -0.222 E-score.

In turn, TCATAACA yielded a binding signal of 0.042 E-score.

ACGACCTC had a binding signal of -0.134 E-score.

Take TGAACGCA: the binding signal is -0.16 E-score.

The sequence CTGCGACA yielded a binding signal of -0.237 E-score.

In the case of CTGCACAA, the binding signal was 0.0821 E-score.

With ATTGGGAA, the binding signal was -0.00816 E-score.

AACATGGT displayed a binding signal of 0.0855 E-score.

Regarding CGAACGAG, the binding signal was -0.127 E-score.

Regarding ATTCTACC, the binding signal came to 0.467 E-score.

In the case of CCGGGGGC, the binding signal was -0.336 E-score.

For the sequence CAAGATAG, the binding signal was 0.276 E-score.

Take TCCGCGAA: the binding signal was 0.149 E-score.

Sequence GCGACAAC came in with a binding signal of -0.157 E-score.

Take ACGGAGCA: the binding signal is -0.0761 E-score.

Sequence GCCTATCA yielded a binding signal of -0.11 E-score.

In turn, AGGACCGG yielded a binding signal of -0.171 E-score.

In turn, AAGGTACT registered a binding signal of 0.242 E-score.

With AGGGTCGA, the binding signal was -0.214 E-score.

On to GGACTTAC, for which the binding signal turned out to be 0.0851 E-score.

CTCATCAA: the binding signal was -0.0647 E-score.

For GCTCACCA, the binding signal was -0.291 E-score.

For CGAGCTGC, the binding signal was -0.138 E-score.

The sequence AGTGTACG displayed a binding signal of -0.0734 E-score.

For the sequence AGATTGAG, the binding signal stood at 0.138 E-score.

As for ACCGCAGT, the binding signal was -0.0133 E-score.

The sequence AATCAGAG came in with a binding signal of -0.0995 E-score.

ATTTGGTG returned a binding signal of 0.181 E-score.
